Assay [1] addresses EGFR on DLD-1 cells (UniProt P00533). The experiment in a line: cell-based or functional assay.
For assay [2], the target named is T1, human EGFR (ACROBiosystems, Cat #: EGR-H5222) (human, UniProt P00533 fragment).
T1 construct: Bought protein; also called recombinant human EGFR protein
The experiment in a line: ELISA, plate coated with human EGFR. In general terms: An ELISA detects its analyte on a solid surface through an enzyme-linked reagent.

In assay [3] the target is T2, Human CLEC5A His Tag protein (ACROBiosystems, Cat #: CLA-H5243) (human, UniProt Q9NY25 28-188, limits assumed).
T2 construct: Bought protein with a His tag; also called recombinant human CLEC5A protein
T2 sequence: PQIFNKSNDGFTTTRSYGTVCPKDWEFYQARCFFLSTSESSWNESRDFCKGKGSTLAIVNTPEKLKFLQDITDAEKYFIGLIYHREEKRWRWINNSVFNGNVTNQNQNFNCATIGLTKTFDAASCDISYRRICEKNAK
Description: ELISA, plate coated with human CLEC5A.

The target of assay [4] is T3, Human C-type lectin domain family 5 member A (CLEC5A), endogenous on human monocytes and M0 macrophages (human, UniProt Q9NY25 1-188).
T3 construct: Endogenous CLEC5A on primary human monocytes and monocyte-derived M0 macrophages; also called MDL-1; M0 macrophages (CLEC5A+) cells
T3 sequence: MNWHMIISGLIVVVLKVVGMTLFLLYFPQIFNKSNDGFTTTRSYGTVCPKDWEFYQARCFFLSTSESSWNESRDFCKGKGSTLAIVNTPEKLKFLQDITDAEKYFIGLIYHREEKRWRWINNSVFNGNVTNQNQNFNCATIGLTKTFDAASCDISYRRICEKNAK
The experiment in a line: flow cytometry on human M0 macrophages, anti-human IgG PE. In general terms: In flow cytometry, cells or beads pass a laser one at a time.

B1: EGFR1/5C7 (2+2 A) Fc-optimized (bispecific antibody, human IgG1, kappa)
heavy: QVQLVESGGGVVQPGRSLRLSCAASGFTFSTYGMHWVRQAPGKGLEWVAVIWDDGSYKYYGDSVKGRFTISRDNSKNTLYLQMNSLRAEDTAVYYCARDGITMVRGVMKDYFDYWGQGTLVTVSSASTKGPSVFPLAPSSKSTSGGTAALGCLVKDYFPEPVTVSWNSGALTSGVHTFPAVLQSSGLYSLSSVVTVPSSSLGTQTYICNVNHKPSNTKVDKKVEPKSCDKTHTCPPCPAPELLAGPSVFLFPPKPKDTLMISRTPEVTCVVVDVSHEDPEVKFNWYVDGVEVHNAKTKPREEQYNSTYRVVSVLTVLHQDWLNGKEYKCKVSNKALPLPEEKTISKAKGQPREPQVYTLPPSRDELTKNQVSLTCLVKGFYPSDIAVEWESNGQPENNYKTTPPVLDSDGSFFLYSKLTVDKSRWQQGNVFSCSVMHEALHNHYTQKSLSLSPGK
light: AIQLTQSPSSLSASVGDRVTITCRASQDISSALVWYQQKPGKAPKLLIYDASSLESGVPSRFSGSESGTDFTLTISSLQPEDFATYYCQQFNSYPLTFGGGTKVEIKRTVAAPSVFIFPPSDEQLKSGTASVVCLLNNFYPREAKVQWKVDNALQSGNSQESVTEQDSKDSTYSLSSTLTLSKADYEKHKVYACEVTHQGLSSPVTKSFNRGECGGGGSGGGGSGGGGSAIVMTQTPSSKSVPVGDTVTINCQASESVDRNNRLAWFQQKPGQPPKLLIYTTSTLASGVPSRFKGSGSGTHFTLTISDVVPDDAATYYCAGYRGAHTDGDAFGCGTEVVVKGGGGSGGGGSGGGGSGGGGSQSLEESGGDLVKPGASLTLTCTASGFSFSRSSYMCWVRQAPGKCLEWIGCLSVGDGHTYYASWAKGRFTISKTSSTSVTLQMTRLTAADTATYFCARAPSYSGDGGHGYDLWGPGTLVTVSS
notes: also called EGFR/CLEC5A (2+2 A) Fc-optimized antibody with EGFR portion of Amivantamab (EGFR1)
In general, EC50 refers to the concentration at which the effect is half-maximal. Higher therefore signals weaker potency. Regarding B1, the “IC50 (nM), DLD-1 cell killing by M0 macrophages” value in assay [1] turned out to be 0.00148 nM. Besides, the EC50 stood at 0.031 µg/mL in assay [2], 0.072 µg/mL in assay [3] and 19 nM in assay [4].

(Values after patent publication US20260201033A1 (LTZ THERAPEUTICS, published 2026).)
